Some of the results follow.
T1: UNK ZnF1-3 (human, UniProt Q9C0B0 31-174)
T1 sequence: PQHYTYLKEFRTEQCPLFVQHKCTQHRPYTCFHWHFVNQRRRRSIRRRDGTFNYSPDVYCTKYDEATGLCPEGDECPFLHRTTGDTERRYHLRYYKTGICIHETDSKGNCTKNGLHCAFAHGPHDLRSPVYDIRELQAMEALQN

B1: chr3:9412954:9412955:+_ENSG00000134077_ENST00000452837|hu_mus|hu_hu_hu_mus_False|18_48 (ssRNA)
RNA: GGGAGUUCUACAGUCCGACGAUCGGUUGAUAUCUCUUCUUUGAUGGCUGGAUUUUCAUAAUAGUCCAAGAUAUGUGAAUCUGAAGUAUGGCUAGUGUGCUUUUUCUUACCAUCUUUCUGAUCGAUUUUGUCUCCUUGUCCACACAACAGAGGAUUGAGCAUCA
B2: chr5:143667385:143667386:-_ENSMUSG00000029580_ENSMUST00000171419|mus_mus|FALSE|FALSE (ssRNA)
RNA: GGGAGUUCUACAGUCCGACGAUCCGACCAGCGCAGCGAUAUCGUCAUCCAUGGCGAACUAUCAAGACACAAAAGAAGGCUAUAGUCACCUCGGGGCCGCCAAGAGCAGCCGCUGCCGCCCUGCCCACUUCCGGCAAGCCGCGGCAACAGAGGAUUGAGCAUCA
B3: 71576759_71576879_1049_CDS_ENSG00000075292_ENST00000264447|human|control|control (ssRNA)
RNA: GGGAGUUCUACAGUCCGACGAUCAACAGGAAACAUAGAAUUACAUAUCACAUUUGGAUUGGGAACAGAUGCAGAAAUGUUCUGCUGUGACUGAAAUUCAUUCUCGACCUCAUCAGUUGGAAUUUCAGGAUCAUAAAUACGUACCAACAGAGGAUUGAGCAUCA
B4: chr17:65740002:65740003:+_ENSG00000130935_ENST00000581375|hu_hu|hu_hu_hu_mus_False|8_108 (ssRNA)
RNA: GGGAGUUCUACAGUCCGACGAUCAACCCGUUCUUGCUCCCUGGACGAACAGGAAGAUUCAUAUUAAAAAAAAUAUAUAUCCAUCAAGUUAGGUGUGGUGGCCACACCUUUACUCCCAGCACUUUGGGAAUAUAAUCUCUGAGUCAACAGAGGAUUGAGCAUCA
B5: chr2:91389038:91389039:+_ENSMUSG00000040549_ENSMUST00000099716|mus_mus|FALSE|FALSE (ssRNA)
RNA: GGGAGUUCUACAGUCCGACGAUCUAGUCCUUUCAAUUGAACCACUGCAUUGGAAUCAGUGACAAAUUUUUUGAUUAAUCCUAAGUAUUUGGACCAUUCUGGACUCUUUUCAUCCUUUAUUUUCUGGAAGAUCUUCAAGGCUUCCAACAGAGGAUUGAGCAUCA
B6: chr11:87793471:87793472:-_ENSMUSG00000020483_ENSMUST00000020775|mus_mus|mus_mus_mus_hu_False|28_68 (ssRNA)
RNA: GGGAGUUCUACAGUCCGACGAUCUGGACUUGAAAAUAAAAGAAUAAGCUGGAUCCCCCACCCCCCCACAGUGUCAACCCUACACGAGAGUUUUGAAGGCGACUCAUGAAUCAGCAGAGCUCAAACGGCAAUGACCACCCCACCCAACAGAGGAUUGAGCAUCA
B7: chr1:178664722:178664723:-_ENSMUSG00000057335_ENSMUST00000057037|mus_hu|motif|central (ssRNA)
RNA: GGGAGUUCUACAGUCCGACGAUCAGGCCUUUGUCGUCGUCUUGCAGGGUCCUUAUAAAUGUGUAAGACAGACAGCAUUUACGGUUGAGUCCUACAGGGAAACACACAGAAGCAAUUCAUUGCUUGGGAGUGAAACUAUCAACUCAACAGAGGAUUGAGCAUCA
B8: chr15:83699029:83699030:-_ENSG00000064726_ENST00000261721|hu_hu|FALSE|FALSE (ssRNA)
RNA: GGGAGUUCUACAGUCCGACGAUCGCAUCUUGGUCGGUCAAUGUAUUCAACUCGGGGUUUAGGGUUGACAGUAAAAUGAAGAAAGAGGUUUACCACUUCACGAUCUGACAAAAUUCCAGAUUGAGCAGGACCUGCUGCAAAUUCCAACAGAGGAUUGAGCAUCA
B9: chr12:42180722:42180723:-_ENSMUSG00000036295_ENSMUST00000043884|mus_hu|mus_mus_mus_hu_True|48_68 (ssRNA)
RNA: GGGAGUUCUACAGUCCGACGAUCCUGUAGGAGAAGAAUCUGUGUGUUAGCUGGCAAUCUGGCUGGGAAGUUUAAAAGACCUAAAUCAUUACAGUCCACUGUAGAUGCUUCCAUAUAAAUGGAUCUGGGUGUAAACCAAGGCCUCAACAGAGGAUUGAGCAUCA
B10: chr2:202488911:202488912:-_ENSG00000155755_ENST00000286196|hu_mus|hu_hu_hu_mus_False|48_108 (ssRNA)
RNA: GGGAGUUCUACAGUCCGACGAUCAUUUAACAUUUUUUCAUAAUCUCCAGUAGCAUUUCAGCAUUAUGUAACAAAAGCUCAAUUGUAAAUACACAUGUCUUAUAAAAAUACACUUAAAAACACGAGUGGGGAGCGCAGGCGCCACAACAGAGGAUUGAGCAUCA
B11: chr5:128448638:128448639:+_ENSG00000066583_ENST00000173527|hu_hu|FALSE|FALSE (ssRNA)
RNA: GGGAGUUCUACAGUCCGACGAUCAGCACUCGCCUUAAUUAGAUUCUGAAUUUCCUUGAAUUUUGGAUGGUCCUUAUCAGCUACCAGCUGAAGCAGAACAGCCUCACUCGUGGUCACUAUGAUCCCGGUUCGAGCGAGACGCUCCAACAGAGGAUUGAGCAUCA
B12: chr4:43703020:43703021:+_ENSMUSG00000078716_ENSMUST00000107866|mus_hu|FALSE|FALSE (ssRNA)
RNA: GGGAGUUCUACAGUCCGACGAUCCACACUGCCCGCAAUGAGCAUAUGCCAAAUGCUGUGAAUGUAGAAGUAGUUGUCCCGGGUCUCCACAAAAGCAUAAAGCAGGACGGCACUGCCUGCAAUAAGGCUGCCAGGGCACAAGUACAACAGAGGAUUGAGCAUCA
B13: chr18:33598288:33598289:-_ENSMUSG00000042834_ENSMUST00000171533|mus_mus|FALSE|FALSE (ssRNA)
RNA: GGGAGUUCUACAGUCCGACGAUCAGUCAGAAUGAUUAAAAACUGGUUUGAUGAAACCUAUUUGUCCACUGUAAAUUCUCUAAAGCCAGGCUUAGAGUCCCAUAGUUUCUUCUUAUAGUUGAUGAUUUACACAGAAAAAAAAAACAACAGAGGAUUGAGCAUCA
B14: chr1:163115689:163115690:-_ENSG00000143248_ENST00000313961|hu_hu|FALSE|FALSE (ssRNA)
RNA: GGGAGUUCUACAGUCCGACGAUCCAAUGUAAUCUUCUACUUAACAUUUCAGAAUUUUAUUAAUCCUUUAAAAAUCACCCUAUUUCUUUUGAGUUAAUAUCCUCAUCUCGAUUACCCUCAUACAUGGCUUAGUUUGAUUCUGUUCAACAGAGGAUUGAGCAUCA
B15: chr5:36814161:36814162:+_ENSMUSG00000029198_ENSMUST00000031099|mus_mus|FALSE|FALSE (ssRNA)
RNA: GGGAGUUCUACAGUCCGACGAUCACUCCCAGAGUCCCUGACUGUGCAAGCAGCUUCAUGUUCUGCUUAGCUUACUUAAGAUUUCCAACAAGGCUGGGCAAGGGUCAGAUGAAUUCACAGAUGAGAAAUUACAAGCCCGCCCUUCAACAGAGGAUUGAGCAUCA
B16: chr12:493273:493274:-_ENSG00000073614_ENST00000399788|hu_mus|hu_hu_hu_mus_False|48_88 (ssRNA)
RNA: GGGAGUUCUACAGUCCGACGAUCUUUUCUCUCCACCACAGGGAUCUUCAGAGUAGAUCCUUGAAGUUCCCAAAAUUUUGCCAGUUGAUCCAAGAAAUCCAAUCUUACUCUAGUCAUUGCCUCAAGUUCAUUCAGGCGCUGGACCAACAGAGGAUUGAGCAUCA
B17: chr13:111857651:111857652:+_ENSG00000102606_ENST00000375736|hu_hu|motif|central (ssRNA)
RNA: GGGAGUUCUACAGUCCGACGAUCGCACACACGGAGUCACUCCCCAGCCCGAUGUCUGCUGUUACUUUAUUUAGAGUCACGGAGGAACUGAGGACCUUGUUAAAAUUCUGCCCCUGAUACAAAUCAUUUGCAUCAAACGUCUCCCAACAGAGGAUUGAGCAUCA
B18: chr7:7679991:7679992:-_ENSG00000106399_ENST00000396682|hu_hu|hu_hu_hu_mus_False|28_28 (ssRNA)
RNA: GGGAGUUCUACAGUCCGACGAUCUGGGAUGAAUCUUUUCCAGCUUCCCCACGAAGCACACGGGCCGGUCGAUAUACUGUGGUAACAUGCUGGCGUUGACGCGCGCUCUGGGCAAGUGCAUUAUGUCCUCCAUGAUUCUGCCGCCAACAGAGGAUUGAGCAUCA
B19: chr1:163116782:163116783:-_ENSG00000143248_ENST00000313961|hu_hu|motif|central (ssRNA)
RNA: GGGAGUUCUACAGUCCGACGAUCUUGAAAUAGGUCUGUCCACACUUAAUAUUCUUUUUUAGACCAAUUUAGCUGGAAAUCGGUUACUUAACCCACAUUCAUUGAUAUCAUAGUCUUGUCUUAUAUUUCUUUGCCUUAGGCAGGCAACAGAGGAUUGAGCAUCA
B20: 58102446_58102566_1542_3pUTR_ENSG00000171649_ENST00000597850|human|control|control (ssRNA)
RNA: GGGAGUUCUACAGUCCGACGAUCAAGGCCUUUCUCCAGUGUGAACCACUUGGUGUUGAAUGAGACCAGACUUUUGGCUAAAGGACUUUCCACACUGGCCACACUCAUAAGGCCUUGCUCCAGUAUGAAUUCUCCGGUGUUGAACAACAGAGGAUUGAGCAUCA
B21: chr10:94963105:94963106:-_ENSMUSG00000062981_ENSMUST00000075829|mus_hu|motif|central (ssRNA)
RNA: GGGAGUUCUACAGUCCGACGAUCUUAUCAAGUGGUAUGAAAAAAGAUGUUCUGAAGAGAAACUGCUUUUAGAAUCUGCUUCGGAGCAUACCAAUUUCUACUCCUGCUUGACGGCUUCUCACCACGAACCCGCCAUCUUGUUUCCAACAGAGGAUUGAGCAUCA
B22: chr3:176740097:176740098:-_ENSG00000177565_ENST00000430069|hu_mus|hu_hu_hu_mus_True|18_28 (ssRNA)
RNA: GGGAGUUCUACAGUCCGACGAUCUGUUUUGUAUACCACAAAAGGAGGCACUUUCAGUAUCUGCAAAAGGUGUUUAGUCCUAAAACAUACUCACCUAGAGGAUAACUAAAACAGAAUUCAAUACAAUCUCUAAGACCUACUCCACAACAGAGGAUUGAGCAUCA

Target: T1, UNK ZnF1-3
Experiment: nsRBNS (natural sequence RNA bind-n-seq); RBNS binding buffer (assumed for nsRBNS): 25 mM Tris pH 7.5, 150 mM KCl, 3 mM MgCl2, 0.01% Triton X-100, 500 ug/ml BSA, 20 U/ml SUPERase-In, 4 C; UNK is unkempt and MSI1 is Musashi-1; names of the RNAs are library labels; protein concentration not given here; high values mean tight binding

| Binder | binding signal [enrichment R] |
| --- | --- |
| B1 | 0.4 |
| B2 | 0.726 |
| B3 | 0.894 |
| B4 | 1.07 |
| B5 | 0.865 |
| B6 | 1.9 |
| B7 | 0.925 |
| B8 | 1.8 |
| B9 | 1.36 |
| B10 | 1.07 |
| B11 | 0.882 |
| B12 | 1.12 |
| B13 | 1.26 |
| B14 | 0.603 |
| B15 | 1.4 |
| B16 | 1.13 |
| B17 | 1.49 |
| B18 | 0.66 |
| B19 | 0.503 |
| B20 | 0.463 |
| B21 | 0.476 |
| B22 | 0.646 |

From publication PMC12136788
